According to the supplement of paper PMC3334620:
In all, about 33,000 sequences were measured (“E-score (-0.5 to 0.5)”: median about -0.01, highest 2% from about 0.26 on). This is one part of the list.

Each sequence was assayed against Ste12 (UniProt P13574) (assay: PBM E-score (8-mer binding enrichment) (E-score (-0.5 to 0.5)); higher = stronger / more preferred TF binding; most listed sequences are background and not binding sites). Details: protein concentration: 200 nM; construct: GST-DNA-binding domain.
Procedure, shortened: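 Masliner-normalised scans of fluorescent anti-GST signal were the basis for scoring. That signal came from GST-tagged yeast transcription factors applied at about 100-200 nM to double-stranded universal all-10-mer Agilent arrays on fresh or once-stripped slides. Each ungapped eight-base word, pooled with its reverse complement, received an E-score from the Universal PBM Analysis Suite.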

| Sequence | PBM E-score |
| --- | --- |
| ATTAAGCG | 0.175 |
| ACGTCTAT | 0.0773 |
| CGTCCGGA | -0.0698 |
| CACGTATA | 0.0207 |
| ACCATCCA | -0.198 |
| CCATCAAG | -0.16 |
| CCCCATGA | 0.0199 |
| GGACTCCA | -0.141 |
| AGAAAACG | 0.0569 |
| AAAGCGTA | 0.0231 |
| GCACGATA | 0.0163 |
| ACTAAAGC | 0.0971 |
| GACCCACC | -0.0232 |
| GATACCCA | -0.191 |
| AACGCTCC | -0.0438 |
| CAATCTGG | -0.182 |
| TAGATCAA | 0.0668 |
| CACATTAA | 0.0442 |
| AAAGTGAT | 0.176 |
| AGCCTGAC | -0.215 |
| GCATGTAA | 0.00356 |
| ATCAGGCA | 0.0108 |
| ACCTCTCT | -0.0427 |
| GCTACGAA | 0.0641 |
| ATGATTGG | 0.0104 |

| Sequence | PBM E-score |
| --- | --- |
| AAACAGCC | 0.125 |
| ACTCATCC | 0.108 |
| CGCTTGAG | -0.0259 |
| AAGCGACA | -0.0402 |
| AAGGTAGT | 0.129 |
| AACGCAGC | -0.0375 |
| AGTAACGA | 0.0261 |
| GACACATA | 0.11 |
| AGGAACTC | -0.137 |
| AGATAAAA | 0.245 |
| AATTTCGT | 0.187 |
| AGGCCGCA | -0.22 |
| ATTATATA | 0.116 |
| CCGACACA | -0.0323 |
| CACCGTCC | -0.117 |
| AATCGCCG | -0.0024 |
| GCCGGTGA | -0.0927 |
| CGATATCA | 0.0159 |
| ACTGTTCA | -0.129 |
| TCGCTAAA | 0.0124 |
| CACTCACA | 0.0133 |
| AGGTCCAT | -0.0313 |
| CACCGATG | -0.177 |
| CCCGATTA | 0.122 |
| AGGACTGC | -0.285 |

| Sequence | PBM E-score |
| --- | --- |
| AGACTCAG | -0.0523 |
| AGATTTTA | 0.0447 |
| TATTGGGA | 0.18 |
| GGAGGACC | -0.0774 |
| AGTAGCCC | -0.0526 |
| CGCAGTTC | -0.0325 |
| CCACTAAG | 0.0233 |
| AGTGGCAT | -0.108 |
| GCGAAGCA | -0.0747 |
| GGTACTAC | -0.0333 |
| CTTCGGGC | -0.177 |
| CACACCAG | 0.0883 |
| ACGACGCA | -0.0748 |
| AATCCCCA | 0.0533 |
| GGGAAGAC | -0.0593 |
| TAGCTAAA | 0.00267 |
| AGGGATGG | 0.0232 |
| AGTTTTGC | 0.156 |
| CGGACTAA | 0.132 |
| CTGCACAG | -0.198 |
| CAGCCGCA | -0.157 |
| ATCCTCAA | 0.00575 |
| GCAATCGA | -0.159 |
| ACGTCATG | -0.075 |
| ATTACGCG | 0.117 |

| Sequence | PBM E-score |
| --- | --- |
| CGGGTAAC | -0.0548 |
| ACCAGCGA | -0.0273 |
| ACCTTTGA | 0.0506 |
| ATTGACAG | 0.124 |
| GAAAGTCC | -0.165 |
| CACCGGAA | 0.217 |
| CCATGTGA | -0.104 |
| AAATTAGA | 0.283 |
| TCCAATCA | -0.0995 |
| CTCGTTGA | -0.116 |
| GTATCCAA | -0.0481 |
| GAATTCAC | 0.0558 |
| CTTCTCTC | -0.0296 |
| CTTAGCTA | -0.153 |
| ACGCCTCG | -0.0327 |
| CGCGGATA | 0.153 |
| GGTAGTCA | -0.142 |
| ATCACCAG | -0.0965 |
| ACTGAAAA | 0.101 |
| ACGTTAGG | -0.0933 |
| ACGAACGC | -0.0254 |
| AGCTACGC | -0.218 |
| TAAAGAAA | 0.203 |
| CTGACCGC | 0.123 |
| AAGGATAG | 0.056 |

| Sequence | PBM E-score |
| --- | --- |
| TCATAGGA | 0.0455 |
| ACATGGGT | -0.0722 |
| GGAACTCA | -0.215 |
| TCATGGAA | 0.151 |
| AGTAGCAC | -0.0791 |
| ACAAGGGT | -0.0412 |
| ACTAGTAT | 0.149 |
| CAGAGGAC | -0.159 |
| ATAGAACC | -0.00797 |
| ACAGACCA | 0.0248 |
| CCGGAGAC | -0.00334 |
| ACGGATCT | -0.183 |
| GTATTCGA | 0.0722 |
| GTGGGCGA | -0.0639 |
| CTAGCCAC | -0.321 |
| CCATGAAA | 0.252 |
| GCGTTGTA | 0.00397 |
| AGCGGAGA | 0.0881 |
| ACAAGGGC | -0.168 |
| AGTGTAAG | 0.228 |
| CCCTAAGG | -0.222 |
| CAGGGCGC | 0.0408 |
| CGCGGAAC | 0.104 |
| GGCGACAA | -0.0913 |
| ACAGCCAA | 0.00901 |

| Sequence | PBM E-score |
| --- | --- |
| TCAGTCAA | -0.0289 |
| GATTGCGC | 0.123 |
| CCCGTGAC | -0.012 |
| AGGCGACG | 0.0249 |
| GGGGACCC | -0.163 |
| AATCTCCT | -0.0183 |
| CATAGCTA | -0.189 |
| ATGGAGAG | -0.00195 |
| CGAGGCCA | -0.0655 |
| GTCGGATA | -0.0399 |
| ACTATATC | 0.215 |
| ATCGTGTG | -0.0771 |
| CTGTTGAA | 0.258 |
| AGGTTGGA | 0.114 |
| CTTTCCTA | -0.0026 |
| ATTTCACC | 0.0498 |
| CAACGTTC | 0.174 |
| TACCCCGA | 0.143 |
| GTACAAAA | 0.0142 |
| ACTCAAGG | -0.176 |
| AGAAGTAG | -0.0868 |
| ATATCCCA | 0.13 |
| CAGTTGTA | -0.0352 |
| CGTCAATC | 0.0356 |
| ACTTTAAC | 0.162 |

| Sequence | PBM E-score |
| --- | --- |
| ACTGGTTA | 0.0295 |
| ACAGGCCA | -0.117 |
| ATTTTGGC | 0.191 |
| ATATTCAT | 0.227 |
| CATACCGG | -0.0527 |
| AGCGGTTA | 0.0437 |
| AGGGAGCG | -0.0688 |
| ATGCCTTC | -0.311 |
| CTGGTGTA | -0.102 |
| CCATCTCG | -0.131 |
| ACGATTGG | -0.0558 |
| ATGTAAAA | 0.349 |
| CCTTTCCC | -0.0368 |
| ATCAAGGA | -0.125 |
| ACCGACCA | -0.00614 |
| AAAGATCA | -0.00317 |
| ACACCTAC | 0.0471 |
| ACCGTCTC | -0.0593 |
| CCGTTGAC | -0.0834 |
| GATTTTAA | 0.201 |
| ACAACAGG | -0.127 |
| CTAAAAAA | 0.278 |
